Assay results published in the RNAGym collection of RNA variant scans (doi:10.7554/elife.90254).
Read counts are not given, so values of variants with three or more changes are uncertain.

B1: LINE1-mini (parent)
chain: GGCAGAGCUCAACACAGCGUGGCAAAGUGGCUGUGGCUAGACUGCC

Variants of: B1
Test: self-cleavage, relative activity (ratio to wild type); higher = more cleavage; in vitro, sequencing; the parent is a self-cleaving ribozyme

Variant | self-cleavage
C3G A6U U32A G33C | 0.12
C8G G40C C42A G44C | 0.03
G5U A11U G19A G21A U28A | 0.02
C10A U32A G33U | 0.04
C13G C15U G22U U38C | 0.04
C18A G21A G27U C37A | 0.1
A11U U20A G21C | 0.09
C18U G22A G35U C42A | 0.03
C37U G40A A41U | 0.1
G5U C10A A39G | 0.01
G7A G21C G35U G40A A41U | 0.21
G2U G27C C37A | 0.1
G5U C10A G27A U28G G33U | 0.01
C18G C37U C46A | 0.02
G2C A4U A11G C15A G40C C46U | 0.01
G1U C8U U9C | 0.05
U9C G21C C23U C42U | 0.04
G7U C31A U32G U34C U38A | 0.03
U9A A14C C45U | 0.16
A12U A16U G17U C23A A26G U28G G40C | 0
A25U C37U C42U U43C | 0.04
A6U G35U C46U | 0.17
G2C G5U G40U | 0.1
G5A C8G G19A C45U | 0.02

Variant | self-cleavage
C8U C23U G30C G33A | 0.29
C10U A16C G19C G33A | 0.04
C18A G19C C23A | 1.07
C13G C18A A25C U28C U34A U38C G40A | 0.05
A12U A24U C37U | 0
A4G A25U A26G | 0.65
C3U A14G G21A A26G G35C | 0.09
G1U C18A G27U U34G G40C | 0.03
G5C G17U C18U G33U | 0.02
A14G A24U C45A | 0.09
C18A U34C G36C | 0.1
G22U G30C C31G G40C | 0.02
G1C C15G A16C | 0.05
G5A C10A C15A A39C | 0.04
G5C C8A G27C G30A | 0.04
A4C U9A C10A U28C | 0.03
G2A G17A G33C G35A | 0.03
G21C A24U C31G | 0.09
G2C C18U G27U | 0.05
C3U U9G G19U C23U C37U | 0.13
C3A U9G C37A | 1.11
G1A A16C G19U A41C | 0.04
C8G C10G A12C | 0
A11G A24C G36U G44A C46A | 0

Variant | self-cleavage
G7U U32A C42A | 0.16
A11U A14C C15G G29A G40A | 0
A6U G27C G29U | 0.15
G2C C8A C15U U38G | 1.05
C8U A11G G40A A41G | 0
C15U U34G C46A | 0.03
C10A C15A U20G A24C | 0.05
G5C G7C C8U A24U G27A G33C | 0.09
C23G A24G C46U | 0.42
G21C C31U G33U C37A G44A | 0.13
G2A A4C G30A | 0.06
C13G G17C G30C U38G | 0.03
G2A A4G A6U | 0.3
C10G G29U G44C C45A | 0.01
C3A U9G C15A C42U | 0.28
A4U G7C G40C | 0
C15A G35A G36A | 0.06
C8A U9G G17U | 0.01
G5A G17U G27A | 0.05
C10U G19A A26C | 0.05
C18A U20A U34A C42A | 0.17
C13G G27U G35U | 0.56
G5C A24G A26G G30U U38A | 0.01
G36U G40A U43A | 0.12

Variant | self-cleavage
C10U C18A A25C C31A C37U | 0.02
C3U C8G C37A | 0.13
A4G G7A U20C C42U | 0.08
C13A C31U U34G | 0.03
G5A C15G G17C C31G U38G | 0.03
A4C A14U U34A A41U | 0.08
G5U G21A G22C G27C C37G | 0.02
G19U U20C G29A G36U G44U | 0.09
U9A G17A G27A | 0.1
C3A C8A G17A C23A C31A U34C A41C | 0.14
C10G A11U C15A | 0.02
G2C C10U C46U | 0.08
C8A G36C C42A | 0.16
A12U G17C G36C | 0.02
C8U G17A A25U G33U C42A C46G | 0.1
U28G U34G G40U | 0.01
G1U G5U A24G A39U | 0.01
G5U U9G A14C G27U C31A G35A | 0.01
G2C A12C A39U | 0.01
C10A A11G C15U U38G | 0.06
A11U G30A G36C | 0.01
U9A A16C C18G G44A C45U | 0.06
G2C G5U A25U | 0.03
C23G G29A C42A | 0.19

Variant | self-cleavage
G1C C13G A26C | 0
C10A C18U C45U C46A | 0.01
G29C G35A C37A U38A | 0.01
G7U U9C C10U C15G C37A | 0.03
G2C A26G G27A | 0.17
A14U G22A U38C | 0.09
G1C G19C U43C C45A | 0.02
G1C C8G G29U C31A | 0
U20G G22A A39C | 0.04
G5C G7U C10A C13A A14U G27U | 0.04
G2C C10U G40A U43C | 0
U9C C18G G35U C42G | 0.02
C15U G21U G27A | 0.75
C10U A14G G19U | 0.08
A11C G19U G44C | 0.03
G29C A41G C45U | 0.49
G1A C3A A6U A11U | 0.12
A4C G7U C10A G27A C45A | 0
U28A U34G C42U | 0.05
A11U G21A G35U | 0.01
G2C A6C A12C G22U C23A | 0.03
A12G U34A A39U | 0
G2C C10A U20A A26G | 0.01
C10U C37U G44C | 0.03

Variant | self-cleavage
G29A C31U C37U G40U | 0.15
A12C G19U U28C U32G | 0
G5A A6U C15U G30C | 0.11
A24U U34G C42A U43C | 0.05
C18A U28G C46U | 0.1
G22C C23A G29A C37A | 0.01
G7U C10A A25U G36A | 0.02
G1C U20G G21C A41U | 0.08
G7C U9A C23G | 0.08
A14G A26U G30U C31A | 0.19
C8A C15G G21A | 0.59
G2U C10A G29C G40A | 0.01
C3A C10A A26U G27C | 0.06
G1A A11U A14G G21A G29A G36U | 0.01
C3A C31A G33U G40C | 0.05
G2U C31U U32A | 0.02
A6U A26C C31A C46A | 0.32
G22C A24U G27U G35U G40U | 0.12
G7C G19C G29U C31U | 0.01
G1C A14C C18A G27C | 0.03
G1U G22C C46G | 0.4
C8A A11C G19U A25C U28C C37A | 0.01
G2C C3U A4U C45G | 0.16
C10A A12U U38C C45U | 0.01

Variant | self-cleavage
C15G G17C U28G G40A | 0.03
A11G A26C C37U G40A | 0
C3G G17U G22A | 0.08
C15A A26C G35A | 0
G19A C23A U28A G29U | 0.3
U9A A24U G29U | 0.11
G1C G2A C18A C23A | 0
C8G U34G A41U | 0.04
A4C U20A U28A | 0.06
C3A G29A G30C C42A | 0.02
U9G G21U A41G G44U | 0.01
C10G A12C C31A U32C G36C C37A C46G | 0.01
U9C C23U G33A C42A C45A | 0.01
A14G C18A U32C | 0.05
C10G G17C C23U C31G U34C | 0.01
A14G G22C U43C | 0.1
U9G C15G C23A U32A A41G G44C | 0.01
A11G A12U G19C | 0.04
G1C A16U U38A | 0.01
G5A G29U G35U C37A A41G | 0.22
A6G C13U G19A U20A | 0.14
G21A A24C A25U G36A G40C | 0.61
G19C C23G G27U U34A | 0.34
